Results on one substance are retold here after article PMC10608500 (Marine Drugs, 2023).

The test relates to COX-2 expression in LPS-stimulated RAW264.7 cells. Put plainly: COX-2 protein expression (immunoblot) in LPS-stimulated RAW264.7 cells. To be noted: 10, 50 and 100 µM, 2 h pre-treatment then LPS 500 ng/mL for 22 h, band intensity by Image J, duplicate. Format: cell-based. Here is the method:
Cells were washed thrice with cold DPBS, lysed using radioimmunoprecipitation assay buffer (RIPA buffer) supplemented with dithiothreitol (FUJIFILM Wako, Osaka, Japan) and complete™ Mini Protease Inhibitor Cocktail (Roche Diagnostics Corp., Indianapolis, Indiana, USA). Lysates were centrifuged at 13,000 rpm for 20 min at 4 °C, and the supernatant was collected. Total protein was quantified at a concentration of 1 μg/μL. SDS-PAGE was utilized to separate 10 μg of protein per well, and then transferred to a polyvinylidene fluoride (PVDF) membrane. The membrane was blocked with 5% skim milk overnight at 4 °C. Subsequently, the PVDF membrane was incubated at 4 °C for 2 h with primary antibodies against COX-2 and β-actin (Cell Signaling, Danvers, MA, USA), diluted in TBS-T containing 0.1% Tween-20. Following three 15 min washes with TBS-T, the membrane was incubated for 1 h at room temperature with secondary antibodies conjugated with horseradish peroxidase (HRP), specific to the primary antibodies. After another three TBS-T washes, protein detection was carried out using Super Signal® West Femto Substrate (Thermo Fisher, Waltham, MA, USA) and the Fusion Solo Chemiluminescent System (Vilber Lourmat, Eberhardzell, Germany).

As for Xinghamide A, the COX-2 protein expression result is “concentration-dependent reduction”.
